The results in this text go back to patent US20230038638A1.

The target in test [1] is T1, human C4b (human) (UniProt P0C0L4).
T1 sequence: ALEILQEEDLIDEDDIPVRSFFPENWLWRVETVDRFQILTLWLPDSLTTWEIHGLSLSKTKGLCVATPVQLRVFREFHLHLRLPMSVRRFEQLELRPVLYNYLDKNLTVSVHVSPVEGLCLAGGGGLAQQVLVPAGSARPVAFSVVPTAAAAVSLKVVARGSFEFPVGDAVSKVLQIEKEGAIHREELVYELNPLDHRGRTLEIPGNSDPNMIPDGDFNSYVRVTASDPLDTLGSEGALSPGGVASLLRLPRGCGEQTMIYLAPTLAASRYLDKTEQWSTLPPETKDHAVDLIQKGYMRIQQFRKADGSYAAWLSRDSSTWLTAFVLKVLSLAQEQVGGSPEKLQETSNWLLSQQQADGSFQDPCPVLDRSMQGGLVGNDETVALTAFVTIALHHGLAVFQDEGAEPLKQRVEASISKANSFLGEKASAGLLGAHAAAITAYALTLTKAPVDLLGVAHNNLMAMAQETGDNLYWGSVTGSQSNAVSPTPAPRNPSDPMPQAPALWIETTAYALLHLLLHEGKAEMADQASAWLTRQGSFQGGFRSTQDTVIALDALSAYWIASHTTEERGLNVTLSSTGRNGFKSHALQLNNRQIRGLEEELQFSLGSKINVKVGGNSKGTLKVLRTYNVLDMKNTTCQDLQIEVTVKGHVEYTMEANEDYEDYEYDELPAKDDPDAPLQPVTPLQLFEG

For test [2], the target named is soluble human C3b (human) (UniProt P01024).
Test [3] deals with T2, human C4b (human) (UniProt P0C0L5).
T2 sequence: T1 sequence with A151T, D317G, P364L, C365S, L368I, D369H, N420S, V451A, L454R, S530A

The target in test [4] is soluble human C3b (human) (UniProt P01024). The source holds these as a separate data set.

Changes are numbered by the printed parent chain. In names and notes the source's numbering stands. Some results are limits rather than exact numbers.

B1: CFI-HSA variant Y408L; N531G; … (SEQ ID NO: 26); CCP_1-4 (enzyme)
chain: [in this place about 600 residues]GGSSGGKVTYTSQEDLVEKKCLAKKYTHLSCDKVFCQPWQRCIEGTCVCKLPYQCPKNGTAVCATNRRSFPTYCQQKSLECLHPGTKFLNNGTCTAEGKFSVSLKHGNTDSEGIVEVKLVDQDKTMFICKSSWSMREANVACLDLGFQQGADTQRRFKLSDLSINSTECLHVHCRGLETSLAECTFTKRRTMGYQDFADVVCYTQKADSPMDDFFQCVNGKYISQMKACDGINDCGDQSDELCCKACQGKGFHCKSGVCIPSQYQCNGEVDCITGEDEVGCAGFASVTQEETEILTADMDAERRRIKSLLPKLSCGVKNRMHIRRKRIVGGKRAQLGDLPWQVAIKDASGITCGGIYIGGCWILTAAHCLRASKTHRYQIWTTVVDWIHPDLKRIVIEYVDRIIFHENYNAGTLQNDIALIEMKKDGNKKDCELPRSIPACVPWSPYLFQPNDTCIVSGWGREKDNERVFSLQWGEVKLISNCSKFYGNRFYEKEMECAGTYDGSIDACKGDSGGPLVCMDANNVTYVWGVVSWGEGCGKPEFPGVYTKVANYFDWISYHVGRPFISQYNVGGSSGGSSGGEDCNELPPRRNTEILTGSWSDQTYPEGTQAIYKCRPGYRSLGNVIMVCRKGEWVALNPLRKCQKRPCGHPGDTPFGTFTLTGGNVFEYGVKAVYTCNEGYQLLGEINYRECDTDGWTNDIPICEVVKCLPVTAPENGKIVSSAMEPDREYHFGQAVRFVCNSGYKIEGDEEMHCSDDGFWSKEKPKCVEISCKSPDVINGSPISQKIIYKENERFQYKCNMGYEYSERGDAVCTESGWRPLPSCEE
In the case of B1, the C4c EC50 in the test with human C4b (human) [1] was determined as 44.1 nM.

B2: CFI-HSA variant 456-… (SEQ ID NO: 9)-465 → … (SEQ ID NO: 10) (enzyme)
chain: [in this place about 600 residues]GGSSGGKVTYTSQEDLVEKKCLAKKYTHLSCDKVFCQPWQRCIEGTCVCKLPYQCPKNGTAVCATNRRSFPTYCQQKSLECLHPGTKFLNNGTCTAEGKFSVSLKHGNTDSEGIVEVKLVDQDKTMFICKSSWSMREANVACLDLGFQQGADTQRRFKLSDLSINSTECLHVHCRGLETSLAECTFTKRRTMGYQDFADVVCYTQKADSPMDDFFQCVNGKYISQMKACDGINDCGDQSDELCCKACQGKGFHCKSGVCIPSQYQCNGEVDCITGEDEVGCAGFASVTQEETEILTADMDAERRRIKSLLPKLSCGVKNRMHIRRKRIVGGKRAQLGDLPWQVAIKDASGITCGGIYIGGCWILTAAHCLRASKTHRYQIWTTVVDWIHPDLKRIVIEYVDRIIFHENYNAGTYQNDIALIEMKKDGNKKDCELPRSIPACVPWSPYLFQPNDTCIVSGWGNTASSGADYPDELQWGEVKLISNCSKFYGNRFYEKEMECAGTYDGSIDACKGDSGGPLVCMDANNVTYVWGVVSWGENCGKPEFPGVYTKVANYFDWISYHVGRPFISQYNV
For the molecule B2, the iC3b Screen Ref Fold (fold vs CFI-HSA wild type) in test [2] was determined as 0.03. The C4b Screen Ref Fold (fold vs CFI-HSA wild type) with human C4b (human) [3] was determined as 0.08.

B3: CFI-HSA ΔC-term (Δ557-… (SEQ ID NO: 27)-565) (enzyme)
chain: [in this place about 600 residues]GGSSGGKVTYTSQEDLVEKKCLAKKYTHLSCDKVFCQPWQRCIEGTCVCKLPYQCPKNGTAVCATNRRSFPTYCQQKSLECLHPGTKFLNNGTCTAEGKFSVSLKHGNTDSEGIVEVKLVDQDKTMFICKSSWSMREANVACLDLGFQQGADTQRRFKLSDLSINSTECLHVHCRGLETSLAECTFTKRRTMGYQDFADVVCYTQKADSPMDDFFQCVNGKYISQMKACDGINDCGDQSDELCCKACQGKGFHCKSGVCIPSQYQCNGEVDCITGEDEVGCAGFASVTQEETEILTADMDAERRRIKSLLPKLSCGVKNRMHIRRKRIVGGKRAQLGDLPWQVAIKDASGITCGGIYIGGCWILTAAHCLRASKTHRYQIWTTVVDWIHPDLKRIVIEYVDRIIFHENYNAGTYQNDIALIEMKKDGNKKDCELPRSIPACVPWSPYLFQPNDTCIVSGWGREKDNERVFSLQWGEVKLISNCSKFYGNRFYEKEMECAGTYDGSIDACKGDSGGPLVCMDANNVTYVWGVVSWGENCGKPEFPGVYTKVANYFDWISYHVG
On to B3, for which, in test [2], the iC3b Screen Ref Fold (fold vs CFI-HSA wild type) was -0.02. Also, the C4b Screen Ref Fold (fold vs CFI-HSA wild type) in the test with human C4b (human) [3] came to 0.15.

B4: CFI-HSA variant ΔC-term (Δ557-… (SEQ ID NO: 27)-565) (enzyme)
chain: [in this place about 600 residues]GGSSGGKVTYTSQEDLVEKKCLAKKYTHLSCDKVFCQPWQRCIEGTCVCKLPYQCPKNGTAVCATNRRSFPTYCQQKSLECLHPGTKFLNNGTCTAEGKFSVSLKHGNTDSEGIVEVKLVDQDKTMFICKSSWSMREANVACLDLGFQQGADTQRRFKLSDLSINSTECLHVHCRGLETSLAECTFTKRRTMGYQDFADVVCYTQKADSPMDDFFQCVNGKYISQMKACDGINDCGDQSDELCCKACQGKGFHCKSGVCIPSQYQCNGEVDCITGEDEVGCAGFASVTQEETEILTADMDAERRRIKSLLPKLSCGVKNRMHIRRKRIVGGKRAQLGDLPWQVAIKDASGITCGGIYIGGCWILTAAHCLRASKTHRYQIWTTVVDWIHPDLKRIVIEYVDRIIFHENYNAGTYQNDIALIEMKKDGNKKDCELPRSIPACVPWSPYLFQPNDTCIVSGWGREKDNERVFSLQWGEVKLISNCSKFYGNRFYEKEMECAGTYDGSIDACKGDSGGPLVCMDANNVTYVWGVVSWGENCGKPEFPGVYTKVANYFDWISYHVG
The molecule B4 came in with an iC3b EC50 in test [4] above 500 nM. For the same molecule, the C4c EC50 with human C4b (human) [1] came out at 825 nM.
